Test results published in publication PMC4336329 (PLoS ONE, 2015).
Out of some 310,000 compounds screened, about 14,000 (4.5%) showed an effect of 50% or more. The effect is printed as a negative number. This is one part of the list.

The compounds below were run against human ether-à-go-go-related gene (hERG) potassium channel (human, UniProt Q12809) (assay: primary screen, population patch clamp on CHO cells stably expressing hERG).
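Further: peak tail current of the secondary pulse compared with the same well before compound.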

Sequence of human ether-à-go-go-related gene (hERG) potassium channel (Q12809 whole entry, looked up): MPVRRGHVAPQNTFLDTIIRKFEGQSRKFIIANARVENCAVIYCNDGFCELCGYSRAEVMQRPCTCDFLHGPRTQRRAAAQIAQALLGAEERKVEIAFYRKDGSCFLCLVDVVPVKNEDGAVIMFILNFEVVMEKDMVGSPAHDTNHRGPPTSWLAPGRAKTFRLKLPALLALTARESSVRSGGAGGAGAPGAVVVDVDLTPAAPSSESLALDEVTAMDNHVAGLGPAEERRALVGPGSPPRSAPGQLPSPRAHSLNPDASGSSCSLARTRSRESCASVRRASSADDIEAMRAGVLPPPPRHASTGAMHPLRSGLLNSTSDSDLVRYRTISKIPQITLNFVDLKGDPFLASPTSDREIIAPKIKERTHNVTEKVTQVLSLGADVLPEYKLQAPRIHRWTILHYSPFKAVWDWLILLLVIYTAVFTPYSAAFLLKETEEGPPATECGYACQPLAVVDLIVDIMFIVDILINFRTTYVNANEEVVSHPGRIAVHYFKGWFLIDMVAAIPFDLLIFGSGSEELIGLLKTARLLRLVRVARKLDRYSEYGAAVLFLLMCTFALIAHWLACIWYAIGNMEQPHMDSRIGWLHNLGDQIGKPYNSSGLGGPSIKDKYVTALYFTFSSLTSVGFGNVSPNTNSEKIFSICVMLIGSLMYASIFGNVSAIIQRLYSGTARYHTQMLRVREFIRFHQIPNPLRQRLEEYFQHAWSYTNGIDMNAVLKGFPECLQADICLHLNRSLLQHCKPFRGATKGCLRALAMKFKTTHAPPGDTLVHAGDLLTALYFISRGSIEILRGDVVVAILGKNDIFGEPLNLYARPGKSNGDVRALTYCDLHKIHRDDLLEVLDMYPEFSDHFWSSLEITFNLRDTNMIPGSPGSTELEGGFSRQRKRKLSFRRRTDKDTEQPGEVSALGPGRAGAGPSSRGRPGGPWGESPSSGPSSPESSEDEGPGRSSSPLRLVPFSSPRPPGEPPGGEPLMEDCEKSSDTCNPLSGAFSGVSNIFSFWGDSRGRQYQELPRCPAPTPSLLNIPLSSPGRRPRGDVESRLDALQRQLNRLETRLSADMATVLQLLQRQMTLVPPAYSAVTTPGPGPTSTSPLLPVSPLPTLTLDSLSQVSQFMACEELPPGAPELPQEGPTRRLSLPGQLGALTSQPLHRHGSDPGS

Row | Structure (SMILES) | hERG current change (%, negative = inhibition) at 10uM [%]
1 | O=P(C1=C(N2CCOCC2)/C(=C\c2ccccc2)CC1)(N1CCOCC1)N1CCOCC1 | -25.3
2 | CC(C)(C)c1csc(NC(=O)Nc2ccccc2)n1 | 13.5
3 | O=C(O)C1CN(C(=O)c2cccc(Br)c2)C1 | 29.5
4 | CCCc1cc(=O)[nH]c(SCC(=O)NC2CCCCC2)n1 | 2.12
5 | COc1ccccc1CNC(=O)/C=C/c1ccc(Br)o1 | -2.72
6 | CC(C)(C)NC(=O)CN(C(=O)CNS(=O)(=O)c1ccccc1)c1ccc2c(c1)OCCO2 | 6.79
7 | CCOC(=O)CSc1nc2c(cnn2-c2ccc(C)cc2)c(=O)[nH]1 | 7.7
8 | Cc1ccccc1C(N)c1ccncc1.Cl (stereo not shown) | 2.52
9 | Cc1cnc(C(=O)OCC(=O)Nc2ccc(C)c(S(=O)(=O)N3CCCCCC3)c2)cn1 | -23.2
10 | Cc1ccc(C(=O)OCCN(C)Cc2ccccc2)cc1.Cl | -44.6
11 | O=C(CCc1nc2ccccc2c(=O)[nH]1)OCC(=O)c1ccc(C2CCCCC2)cc1 | -8.95
12 | COc1ccc(-c2nc(NCCCN(C)C)c3ccccc3n2)cc1.Cl | -27.3
13 | CCOC(=O)c1[nH]cnc1C(=O)NC1CCCCC1 | 23.5
14 | CCCC(C)n1[nH]c(=O)c2c(C)cc(C)nc21 (stereo not shown) | 6.46
15 | CN(C)CC(C)(C)CNS(=O)(=O)c1cccc2nsnc12 | 6.86
16 | COc1ccc(-c2c(N)nnc3c2[nH]c2ccccc23)cc1OC.Cl | -14.3
17 | COc1ccc(CC(=O)NCc2cn3ccsc3n2)cc1 | 16.2
18 | Cc1ccc(C2=[N+]([O-])C(C)(C)N(O)C2(C)C)cc1 | 4.91
19 | Cc1cnc(NC(=O)CC(C)c2ccccc2)s1 (stereo not shown) | 15.8
20 | CCOc1cc(NC(=O)c2ccccn2)c(OCC)cc1NC(=O)c1ccc(OC)cc1 | 3.54
21 | O=C(c1ccc([N+](=O)[O-])cc1[N+](=O)[O-])N1CCN(C(=O)C2CCCO2)CC1 (stereo not shown) | 5.57
22 | COc1cc(C(=O)Nc2cccc(S(=O)(=O)N3CCCC3)c2)cc(OC)c1C | 2.98

Row | Structure (SMILES) | hERG current change (%, negative = inhibition) at 10uM [%]
23 | Cc1ccccc1N(CC(=O)NC1CCCCC1)C(=O)CNC(=O)c1cccs1 | -32.8
24 | COC(=O)COc1cc(C)cc2oc(=O)c(CC(=O)OC)c(C)c12 | -23.8
25 | CCOCCCNC(=O)C1CCCN(S(=O)(=O)CC)C1 (stereo not shown) | 5.35
26 | COc1cc(OC)cc(C(=O)NCCNc2nc3cc(C)cc(C)c3cc2C#N)c1 | 0.0728
27 | COc1ccc(S(=O)(=O)N2CCCC(C(=O)Nc3ccc(NC(=O)c4ccccn4)cc3)C2)cc1 (stereo not shown) | 4.17
28 | CC(C)Cc1cc(CNC(=O)C2CCC(=O)N(CCc3cccc(F)c3)C2)on1 (stereo not shown) | -43.4
29 | Cc1ccc(NC(=S)NNC(=O)Nc2ccccc2)cc1 | 39
30 | COc1ccc(CCNC(=O)c2cc3c(=O)n4ccccc4nc3n(CCCN3CCOCC3)c2=N)cc1 | -79
31 | COc1cc(C)c(NC(=S)Nc2cccc(Cl)c2)cc1OC | 6.72
32 | CN(C)S(=O)(=O)N1CCN(CC(O)COc2ccc3cc(Br)ccc3c2)CC1 (stereo not shown) | -25.6
33 | COc1ccc(C)cc1NC(=O)C(Sc1nnc(-c2ccncc2)n1-c1ccc(Cl)cc1)c1ccccc1 (stereo not shown) | 17.3
34 | COc1ccc(OCC(=O)Nc2ccc(C(=O)Nc3ccccc3C(=O)O)cc2)cc1 | 23.2
35 | COc1ccc(NC(=O)CCCC(=O)NCCc2ccc(OC)c(OC)c2)cc1 | 7.19
36 | COc1cccc(NC(=O)C(OC(=O)c2ccccc2NS(=O)(=O)c2cccs2)c2ccccc2)c1 (stereo not shown) | 5.84
37 | CCc1nnc(NC(=O)CSc2nnc(Cc3cccn3C)n2C)s1 | 10.2
38 | CCOC(=O)N1CCC(NC(=O)CS(=O)Cc2nc(-c3ccc(OC)c(OC)c3)oc2C)CC1 (stereo not shown) | 15.2
39 | O=S(=O)([O-])Oc1c[nH]c2ccccc12.[K+] | 17.8
40 | N#Cc1ccc(OCC(=O)NCC2COc3ccccc3O2)cc1 (stereo not shown) | -16.4
41 | CC(=O)Cc1nsc(Nc2cccc(C)c2)n1 | 3.45
42 | O=C(Nc1cccc2ccccc12)c1nn(C23CC4CC(CC(C4)C2)C3)cc1[N+](=O)[O-] | -2.59
43 | CCCCn1c(SCC(=O)Nc2cc(C)on2)nc2ccsc2c1=O | 8.7
